In the supplement of paper PMC4604168 (melanoma cell lines):
Some of the results follow. Most values come without repeats; read them as rough.

test system: COLO800; test: cell count relative to DMSO control; melanoma cells; higher = more viable cells; details: library dose: low library concentration; 72 h
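Note: cell number obtained by counting DAPI-stained nuclei in high-throughput microscope images with image analysis software, screen run in 1,536-well plates.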

Structure (SMILES) | cell count
Cc1cc(Nc2cc(N3CCN(C)CC3)nc(Sc3ccc(NC(=O)C4CC4)cc3)n2)n[nH]1 [Tozasertib] + Cc1cc(Nc2cc(N3CCN(C)CC3)nc(/C=C/c3ccccc3)n2)n[nH]1 [ENMD2076] (first compound 0.006 µM, partner dose 0.04 µM) | 138%
Cc1cc(Nc2cc(N3CCN(C)CC3)nc(Sc3ccc(NC(=O)C4CC4)cc3)n2)n[nH]1 [Tozasertib] + CC1(C)NC(=O)N(c2ccc([N+](=O)[O-])c(C(F)(F)F)c2)C1=O [nilutamide] (first compound 0.006 µM, partner dose 1 µM) | 74.4%
CC[C@]1(O)C[C@H]2CN(CCc3c([nH]c4ccccc34)[C@@](C(=O)OC)(c3cc4c(cc3OC)N(C=O)[C@H]3[C@@](O)(C(=O)OC)[C@H](OC(C)=O)[C@]5(CC)C=CCN6CC[C@]43[C@@H]65)C2)C1 [vincristine] + COc1ccc(Cl)c(Nc2nc3ccccc3nc2NS(=O)(=O)c2cccc(NC(=O)C(C)(C)N)c2)c1 [XL147] (first compound 0.0001 µM, partner dose 0.8 µM) | 64.8%
N#CC[C@H](C1CCCC1)n1cc(-c2ncnc3[nH]ccc23)cn1 [ruxolitinib] + CCN(CC)CCNC(=O)c1c(C)[nH]c(/C=C2\C(=O)Nc3ccc(F)cc32)c1C [sunitinib] (first compound 1 µM, partner dose 0.4 µM) | 97.4%
Cc1cc(Nc2cc(N3CCN(C)CC3)nc(Sc3ccc(NC(=O)C4CC4)cc3)n2)n[nH]1 [Tozasertib] + COc1cc([C@@H]2c3cc4c(cc3[C@@H](O[C@@H]3O[C@@H]5CO[C@@H](C)O[C@H]5[C@H](O)[C@H]3O)[C@H]3COC(=O)[C@H]23)OCO4)cc(OC)c1O [etoposide] (first compound 0.006 µM, partner dose 0.02 µM) | 132%
CC[C@]1(O)C[C@H]2CN(CCc3c([nH]c4ccccc34)[C@@](C(=O)OC)(c3cc4c(cc3OC)N(C=O)[C@H]3[C@@](O)(C(=O)OC)[C@H](OC(C)=O)[C@]5(CC)C=CCN6CC[C@]43[C@@H]65)C2)C1 [vincristine] + Oc1nc(-c2ccc(C(F)(F)F)cc2)nc2c1CSCC2 [XAV939] (first compound 0.0001 µM, partner dose 2 µM) | 82.3%
CC[C@]1(O)C[C@H]2CN(CCc3c([nH]c4ccccc34)[C@@](C(=O)OC)(c3cc4c(cc3OC)N(C=O)[C@H]3[C@@](O)(C(=O)OC)[C@H](OC(C)=O)[C@]5(CC)C=CCN6CC[C@]43[C@@H]65)C2)C1 [vincristine] + CC(=O)O[C@@]12CO[C@@H]1C[C@H](O)[C@@]1(C)C(=O)[C@H](O)C3=C(C)[C@@H](OC(=O)[C@H](O)[C@@H](NC(=O)OC(C)(C)C)c4ccccc4)C[C@@](O)([C@@H](OC(=O)c4ccccc4)[C@H]21)C3(C)C [Docetaxel] (first compound 0.0001 µM, partner dose 0.0001 µM) | 40%
N#CC[C@H](C1CCCC1)n1cc(-c2ncnc3[nH]ccc23)cn1 [ruxolitinib] + Cn1nnc2c(C(N)=O)ncn2c1=O [temozolomide] (first compound 1 µM, partner dose 2 µM) | 197%
Cc1cc(Nc2cc(N3CCN(C)CC3)nc(Sc3ccc(NC(=O)C4CC4)cc3)n2)n[nH]1 [Tozasertib] + Nc1nc(F)nc2c1ncn2[C@@H]1O[C@H](CO)[C@@H](O)[C@@H]1O [fludarabine] (first compound 0.006 µM, partner dose 0.2 µM) | 109%
N#CC[C@H](C1CCCC1)n1cc(-c2ncnc3[nH]ccc23)cn1 [ruxolitinib] + NC(=O)c1ccc(N(C(N)=O)c2c(F)cccc2F)nc1-c1ccc(F)cc1F [VX702] (first compound 1 µM, partner dose 0.4 µM) | 122%
